Experimental data taken from PubChem BioAssay AID485281 (National Center for Advancing Translational Sciences (NCATS), 2010).
Screen size: about 350,000 compounds; about 260 (0.074%) were called active. Inconclusive means that the source gave no clear call. Such entries were picked first, then a sample of the others. Calls come from the whole dose curve; as a rule, active = well fitted inhibition curve with a large enough effect; inconclusive = small, poorly fitted or top-dose-only effect; inactive = no such curve, though single readings can be large or run the other way. A potency beside an inconclusive call is a rough fit, not a confirmed value.

These molecules were tested against Ferritin light chain (Equus caballus) (UniProt P02791) (assay: qHTS Assay for Identification of Novel General Anesthetics). Conditions: apoferritin/1-aminoanthracene competitive binding, fluorescence; activity change, negative = displacement: at 77.5 µM (top of the series).
How it was run: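 Concentration-response curves derived by four-parameter Hill fitting of normalized fluorescence, where compounds displaced 1-AMA from 10 uM horse apoferritin following a brief 10 min room-temperature incubation; propofol titration acted as positive control.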
% is set by controls: 0 for no effect and ±100 for the full control effect; potency is the fitted concentration of half-maximal effect; tags give direction and shape of the fitted curve.
Note: nearly all actives have a fitted effect of over 20% in size.

Chain of UniProt P02791 (P02791 whole entry, looked up): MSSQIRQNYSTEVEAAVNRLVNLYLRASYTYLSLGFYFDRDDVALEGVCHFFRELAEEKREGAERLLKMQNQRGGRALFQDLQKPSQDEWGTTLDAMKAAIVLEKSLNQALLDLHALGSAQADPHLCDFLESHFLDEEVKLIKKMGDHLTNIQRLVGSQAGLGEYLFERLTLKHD

How did the Potency turn out when `O=C(CCNS(=O)(=O)c1c(Cl)cccc1Cl)OCC(=O)c1ccccc1` was run?
The Potency was inconclusive: 31.6 µM [inhibitor, partial curve].

For `CC1Cc2ccccc2N1C(=S)NC(=O)c1cccc(Br)c1` (stereo not given), which Potency is on record?
The Potency was inconclusive: 56.2 µM [inhibitor, single point].

Which Potency does the source give for `Cc1ccc(-n2nc(CO)c(C(=O)NCCCCc3ccccc3)n2)cc1C` here?
The Potency was inconclusive: 11.2 µM [inhibitor, single point].

How did the Potency turn out when `CCc1ccc(C(=O)COC(=O)c2nn(C)c(=O)c3ccccc23)cc1` was run?
The Potency was inconclusive: 35.5 µM [inhibitor, single point].

With `Cc1nc2cccnc2n1-c1cccc(C(=O)N2CCN(c3cccc(Cl)c3)CC2)c1` as the molecule, how does the Potency read?
Its Potency is inconclusive: 28.2 µM [inhibitor, partial curve].

Which Potency does the source give for `COc1ccc(-c2nnc(SCC(=O)NCCc3ccc(OC)c(OC)c3)nc2-c2ccc(OC)cc2)cc1` here?
The Potency was inconclusive: 17.8 µM [inhibitor, partial curve].

Which Potency does the source give for `Cc1ccc(NC(=O)COC(=O)CCC(=O)c2ccc(Cl)cc2)cc1S(=O)(=O)N(C)C` here?
Its Potency is inconclusive: 39.8 µM [inhibitor, partial curve].

With `O=C(CN1C(=O)C(c2ccc(F)cc2)=NC12CCCCCC2)Nc1ccccc1Cl` as the molecule, how does the Potency read?
The Potency was inconclusive: 7.08 µM [inhibitor, single point].

How did the Potency turn out when `COC(=O)c1[nH]nc2c1C(=O)N(C1CCCCC1)C2=O` was run?
Its Potency is inconclusive: 35.5 µM [inhibitor, partial curve].

For `O=C(Nc1ccn(Cc2c(F)c(F)cc(F)c2F)n1)c1ccc(COc2ccc(Cl)cc2Cl)o1`, which “activity change, negative = displacement” value is on record?
Its value is inactive: 8.53%.

For `CC(C)CC(NS(=O)(=O)c1ccccc1)C(=O)O` (stereo not given), which “activity change, negative = displacement” value is on record?
Its value is inactive: -9.43%.

`O=c1[nH]c(SCCOc2ccccc2F)nc2ccccc12` was tested. Which Potency did it give?
The Potency was inconclusive: 10 µM [inhibitor, partial curve].

How did the “activity change, negative = displacement” value turn out when `Cc1cccc2c3c([nH]c12)CCN(C)C3` was run?
Its value is inactive: -4.1%.

How did the Potency turn out when `CCN(C(=O)Cn1nnc2sc3c(c2c1=O)CCC(C(C)(C)C)C3)c1cccc(C)c1` (stereo not given) was run?
The Potency was inconclusive: 39.8 µM [inhibitor, single point].

`COc1ccc(CNc2nc(NCc3ccc(OC)cc3)c3[nH]cnc3n2)cc1` was tested. Which “activity change, negative = displacement” value did it give?
Its value is inactive: -11.7%.

How did the “activity change, negative = displacement” value turn out when `Cc1ccc(OCCCCN2CCC(C)CC2)cc1` was run?
Its value is inactive: 5.14%.

For `O=C(CCSc1nc(-c2ccco2)cc(C(F)(F)F)n1)NCCc1ccccc1`, which Potency is on record?
The Potency was inconclusive: 28.2 µM [inhibitor, single point].

Which “activity change, negative = displacement” value does the source give for `O=C(CCCC(=O)N(c1ccc2c(c1)OCCO2)C(C(=O)NC1CCCCC1)c1ccc(F)cc1)Nc1ccccn1` (stereo not given) here?
The value was inactive: -7.34%.

How did the “activity change, negative = displacement” value turn out when `CCCCCCc1c(C)[nH]c2nc3ccccc3n2c1=O` was run?
The value was inactive: -0.801%.

Which “activity change, negative = displacement” value does the source give for `CCC1CN(S(=O)(=O)c2cc(-c3cc(C)no3)ccc2C)c2cc(C)ccc2O1` (stereo not given) here?
Its value is inactive: 53.1%.

Which Potency does the source give for `O=C1c2cc([N+](=O)[O-])cc3cc([N+](=O)[O-])cc(c23)C(=O)N1c1ccccn1` here?
The Potency was inconclusive: 39.8 µM [inhibitor, partial curve].

Which Potency does the source give for `Cc1ccc(CN2C(=O)N/C(=C\c3cccn3-c3cccc(C(=O)O)c3)C2=O)cc1` here?
Its Potency is inconclusive: 50.1 µM [inhibitor, single point].

With `CCCn1cc(S(=O)(=O)c2ccccc2)c(=O)c2cc(F)c(N3CCCC(C)C3)cc21` (stereo not given) as the molecule, how does the Potency read?
Its Potency is inconclusive: 17.8 µM [inhibitor, partial curve].

How did the “activity change, negative = displacement” value turn out when `c1coc(CNc2nc(-c3ccncc3)cs2)c1` was run?
The value was inactive: -8.15%.

`COc1ccc(C)cc1NC(=O)c1c(C)oc2ncn(CC(C)C)c(=O)c12` was tested. Which “activity change, negative = displacement” value did it give?
The value was inactive: -4.47%.

Which Potency does the source give for `O=C(Nc1nc2n(n1)C(c1ccccc1)CC(c1ccc(Cl)cc1)N2)c1ccco1` (stereo not given) here?
The Potency was inconclusive: 35.5 µM [inhibitor, partial curve].

With `CCN1C(=O)/C(=C2\SC(N3CCCCC3)=NC2=O)c2ccccc21` as the molecule, how does the Potency read?
Its Potency is inconclusive: 7.08 µM [inhibitor, full curve, poor fit].

For `CC1=C(C(=O)Nc2ccccc2)C(c2cccnc2)n2nc(SCc3ccccc3Cl)nc2N1` (stereo not given), which “activity change, negative = displacement” value is on record?
Its value is inactive: -8.06%.

How did the “activity change, negative = displacement” value turn out when `COc1ccc(CN2CCCN(S(=O)(=O)c3ccc(Br)cc3)CC2)cc1` was run?
Its value is inactive: 3.67%.

Which Potency does the source give for `Cc1ccc(C(=O)NCCCc2ccccc2)c(Cl)c1` here?
The Potency was inconclusive: 28.2 µM [inhibitor, single point].

Which Potency does the source give for `Oc1ccccc1N=Cc1sc2ccccc2c1Cl` here?
The Potency was inconclusive: 35.5 µM [inhibitor, partial curve].

`O=C(Nc1ccc(N2CCN(C(=O)c3ccccc3)CC2)cc1)c1ccc([N+](=O)[O-])o1` was tested. Which “activity change, negative = displacement” value did it give?
The value was inactive: -19.8%.

`Oc1ccc(/C=N/Nc2ccc(C(F)(F)F)cn2)cc1` was tested. Which “activity change, negative = displacement” value did it give?
The value was inactive: -12.2%.

With `COc1ccc(C2=C(C)C(=NCCCN3CCN(c4cc(C)ccc4C)CC3)NS2(=O)=O)cc1` as the molecule, how does the “activity change, negative = displacement” value read?
The value was inactive: -5.92%.

How did the Potency turn out when `N=c1c2c(-c3ccccc3)c(-c3ccccc3)n(Cc3ccco3)c2ncn1CCCn1ccnc1` was run?
The Potency was inconclusive: 25.1 µM [inhibitor, partial curve].
